± gives the standard deviation of the averaged measurements. The list shows a part of the results.

In the test the test system is PfAP2-I AP2 domain 3 (GST-tagged). As to the kind of experiment: gcPBM binding intensity (ln(normalized median fluorescence intensity)); higher = stronger DNA binding. A digest of the protocol:
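GST-fused DNA-binding domains of P. falciparum, expressed in E. coli, were applied at about 25 μg on average for 1 h to an Agilent 4 × 180k array of primer-extended double-stranded 36-bp intergenic genomic probes and negative controls. Binding intensity is the highest Masliner-normalised natural-log median intensity across replicate spots of either probe orientation, measured with Alexa488 anti-GST antibody and a 488 nm scan.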
Take “AAAAAAAAAAAACACACACACACACTAATATATAAA [CACACA_site8302]”: the “gcPBM binding intensity (ln)” value is 7.89 ± 0.28.
The value for “TAATATATAAGAAACAAAAAAAAATAAAAATATATA [TGCATGCA_negctrl_site153]” was 7.48 ± 0.58; that for “TAAAATAATTCGTAACGTACATATGTAATATAATAT [XGTACX_site6126]” was 7.96 ± 0.4.
In the case of “CGCATACACGGACACACACACACATATATATATATA [CACACA_site4520]” it was 9.37 ± 0.23; in that of “GTGCTACATCATATGTGTACATATACCAAACTGTAT [XGTACX_site8233]”, 8.775 ± 0.064.
For the sequence “ATATGTATTGGAGTGTGTACATATATATATATTTAT [XGTACX_site5633]”, the “gcPBM binding intensity (ln)” value worked out at 7.92 ± 0.43.
The value for “TTAATAATGTTTTATTGTACTTTTTTGTGGGTTTAT [XGTACX_site5670]” was 8.145 ± 0.064; that for “ATATACATTCAAGGCTGTACACTATATTTTTTTTTT [XGTACX_site6514]” was 8 ± 0.71.
Turning to “TTTGTGTAAAGAATCAGTACATATAATATATATATA [XGTACX_site1972]”, the “gcPBM binding intensity (ln)” value worked out at 8.74 ± 0.028.
The value for “TAAAAATGGGAGGGGTGTACTACACAATAAAATTAT [XGTACX_site5641]” was 9.21 ± 0.12.
On to “TGTATTTTTAACATATGTACGAATAGCACGTGTTAT [XGTACX_site3640]”, for which the “gcPBM binding intensity (ln)” value was determined as 8.61 ± 0.5.
Consider “TATTTTATATGATAGGTGCATTTTTTTTTTTTTTTT [GTGCAC_site9757]”, for which the “gcPBM binding intensity (ln)” value is 10.5 ± 0.3.
The value for “CTTGACCCCCTTTGTTGTACTGACATTTGTGAGCTT [XGTACX_site591]” was 8.37 ± 0.21.
In the case of “ATTTTTTCAAAATGGAAAACTTATCAGTGAAAAAAA [CACACA_negctrl_site1087]” it was 8.02 ± 0.57; in that of “TAAGTGTATGTATATAAACACACATACATATATATA [CACACA_site8397]”, 8 ± 0.71.
In the case of “TAATTTAAAAATTCCTGTACTCAGTTTTTTCTATTT [XGTACX_site4961]” it was 7.67 ± 0.53.
As to “TATAAAATTATTAAACAAGAAAATTTTAGGTAATAC [TGCATGCA_negctrl_site568]”, the “gcPBM binding intensity (ln)” value turned out to be 7.9 ± 0.51.
The value for “TTGATAAAACGTTATGCACACGTACGTGGGTATTTA [CACACA_site8445]” was 9.68 ± 0.22; that for “TATAATATATTTTGATGTACAAATATATTATATATA [XGTACX_site8633]” was 7.54 ± 0.15.
In the case of “ATAATATATTTTTGAACACACAATATATATATATAT [CACACA_site4124]” it was 9.23 ± 0.17; in that of “ATATAAATATGACACACACACAAAAAAAATAAAGAC [CACACA_site6208]”, 8.4 ± 0.61.
The value for “AGTATACACGAACACACACACACATATATAAATATA [CACACA_site6913]” was 7.82 ± 0.39; that for “TAAAGTATTACAACCACACACACACCCATATATTAT [CACACA_site4159]” was 8.05 ± 0.23; that for “ATGTGATAGAAGTACACACACATATGTATTTATAAT [CACACA_site5075]” was 7.84 ± 0.59.
As to “TGTTTTATTTTTTTTGTGCACATACCTTTAGCATCA [GTGCAC_site9812]”, the “gcPBM binding intensity (ln)” value is 10.64 ± 0.064.
On to “TAATTATAATAAATATTCATATGTTCAAATATATAT [CACACA_negctrl_site151]”, for which the “gcPBM binding intensity (ln)” value is 7.68 ± 0.51.
The value for “TAGAAGTACATATATGCATGTTAATTTTAAAGGAGG [TGCATGCA_site538]” was 7.91 ± 0.54; that for “ATTAAAAATATTAGTTGTACTTTATATTTTCATATA [XGTACX_site3614]” was 7.7 ± 0.12.
In the case of “ATATATATATAGTGTTGTACATTTAAAAATAATATA [XGTACX_site2627]” it was 9.28 ± 0.32; in that of “AATCAAAATAATTTAACACACAATTTTAATACTGTT [CACACA_site2375]”, 7.55 ± 0.57; in that of “TTTAAGAATTAACGGGGTACAATTCTTAAATATATA [XGTACX_site669]”, 8.195 ± 0.078.
In the case of “AAATTCCATGAAAAAAGTACTAATTAATACAATATA [XGTACX_site2877]” it was 7.75 ± 0.4; in that of “TCTTTTATGCACATTGAGTAAACAACATATTTTTAA [TGCATGCA_negctrl_site561]”, 10.2 ± 0.76.
As for “TTTAAAAAAATTCATGCACACGAAATAAAAAGCACC [CACACA_site8214]”, the “gcPBM binding intensity (ln)” value stood at 10.3 ± 0.22.
The value for “TTTTTTATTAAAAGTAGTACACATGAAAAAAAAAAA [XGTACX_site5524]” was 8.31 ± 0.4.
In the case of “ATTTTTATAGAAATATGTACACAATATGTATATATT [XGTACX_site7993]” it was 7.7 ± 0.47; in that of “TTAATATAGATATAACCACACACATACATCTAATTC [CACACA_site8519]”, 7.8 ± 0.46; in that of “TTTGTTGACAGACACACACACATACATATATATATA [CACACA_site2288]”, 9.2 ± 0.18.
Take TATAATAATATAATGGTGCATGTATATAACCATATA: the “gcPBM binding intensity (ln)” value came to 9.21 ± 0.14.
For “GCTCTTTTGTTATGGTGTACCCTCCATGTAACATAA [XGTACX_site91]”, the “gcPBM binding intensity (ln)” value was determined as 8.27 ± 0.47.
In the case of “TTAATAATTCTTAAAAGTACATAACTTTTTTTTTTT [XGTACX_site751]” it was 7.51 ± 0.3.
In the case of “TCTTACGGATTCATTGTGCACATATATATATATATA [GTGCAC_site9896]” it was 10.6 ± 0.11; in that of “AAATAAATATAAATAAATAAATAAATAAATATATAT [CACACA_negctrl_site827]”, 7.69 ± 0.55.
Take “TATATATAATTCATACATTTTAAATATATTTATTTA [CACACA_negctrl_site840]”: the “gcPBM binding intensity (ln)” value worked out at 7.6 ± 0.33.
The value for “TTTTAAAAACGGCATGCATGTAATACATGGAAGGAA [TGCATGCA_site480]” was 8.38 ± 0.81; that for “TTTATAATTTTAAAATGTACAAGGAGGAAAAATTCT [XGTACX_site422]” was 8.16 ± 0.61; that for “TATATAAATATTCGTAGTACAATACAATTATAAGTA [XGTACX_site3068]” was 7.72 ± 0.42.
The value for “TTATATTTTATATTTACACACATTTATATTTATAAA [CACACA_site203]” was 7.72 ± 0.45.
As for “ATTTAATAAAAAAAAAAAATATTGTAGAATATGATG [GTGCAC_negctrl_site195]”, the “gcPBM binding intensity (ln)” value was 7.45 ± 0.67.
In the case of “AATTTGTAAAATAAGGTGCGTATAAAAAATTATATT [GTGCAC_site9676]” it was 9.71 ± 0.2; in that of “ATAAACATCGGTAGTACACACATTCATGTACTTGAT [CACACA_site3037]”, 8.05 ± 0.42.
The value for “ATATACATATTCTTGTGTACATAAAAATTTATATAT [XGTACX_site8726]” was 8.06 ± 0.49.
The value for “CAAATGGTAAATGAAAGTACAAATTGTTTTGATTAA [XGTACX_site1536]” was 7.51 ± 0.91.
Consider “TATATATTAAAACACACACACATATATATATATATA [CACACA_site3787]”, for which the “gcPBM binding intensity (ln)” value is 9.27 ± 0.24.
The value for “CAGAAATATTAATGCTGTACGGAATACATATATTTT [XGTACX_site539]” was 7.53 ± 0.61.
In the case of “ATTTTAATGGGACATGCATGGGACAAACTACAAATT [TGCATGCA_site853]” it was 8.33 ± 0.81; in that of “AGAATATTTATATGATGTACTTATATATATATATAT [XGTACX_site3021]”, 9.34 ± 0.46.
The value for “TAAAAATATTTAAACTGTACTATTTTATGTTAAATG [XGTACX_site6620]” was 7.71 ± 0.092.
In the case of “ATAATCCAAAAAAATCAAATAAAATAAAATAAAATA [CACACA_negctrl_site449]”, the “gcPBM binding intensity (ln)” value came to 7.7 ± 0.61.
In the case of “AATAAAAACTACATGTGTACATAATAAATACATATA [XGTACX_site755]” it was 7.87 ± 0.47; in that of “TTTTTTCTTTTCTTTTTATTTTATTTTGTTTTATTT [CACACA_negctrl_site799]”, 7.32 ± 0.64; in that of “TGTTGCAAAACAAAAAAAAAAAAAAAAAATAATAAT [CACACA_negctrl_site1642]”, 7.82 ± 0.24.
In the case of “TGAACCAGATTTAGAAGTACTAAATATTACATACAT [XGTACX_site2437]” it was 7.55 ± 0.49; in that of “TTTTCTTACATGAGTGTACACACTTTTTTTCAGAAA [CACACA_site70]”, 8.16 ± 0.57; in that of “TTTATATAATTTTAATGTACATATATATATATAAAT [XGTACX_site4381]”, 7.78 ± 0.13.
The value for TTATTTGAATAATGTTTGCACTTAGAGTATTTTATA was 8.82 ± 0.18; that for “ATATATCATAAATAAATGAAAATATTTTCTATGTGT [CACACA_negctrl_site689]” was 7.77 ± 0.62.
In the case of “TTCTTCACATACACTTCAAAATTTGATAAAACATTA [CACACA_negctrl_site472]”, the “gcPBM binding intensity (ln)” value was 8.24 ± 0.38.
For the sequence “TAATAAATAAGATTCACACATATTTAAATGTTATGC [CACACA_site5275]”, the “gcPBM binding intensity (ln)” value came out at 7.49 ± 0.47.
In the case of “TATCTATAATATTATACACACATATATGCATAATAT [CACACA_site6175]” it was 8.33 ± 0.67; in that of “GTATATAATTTTTTTTTTTTTTTCATTCTTTTCCTT [CACACA_negctrl_site1780]”, 7.75 ± 0.59.
In the case of “ATGAATTGACCATATTGTACATATTTAGGACTTACC [XGTACX_site8072]” it was 7.96 ± 0.76; in that of “AAATATATGAAATATACACACTTCTTTGGTATTATT [CACACA_site4414]”, 7.5 ± 0.61.
In the case of “TATATATTTTTTTCAAGTACACATTACAGTTACATA [XGTACX_site2713]” it was 8.03 ± 0.23.
For “ATTCGATGTTTTAAATGTACACAAATTGAAGGAATA [XGTACX_site409]”, the “gcPBM binding intensity (ln)” value stood at 8.12 ± 0.41.
The value for “ATGTTTTCTCTTTCGGTGCATTGTTTTCTATACTTT [GTGCAC_site9483]” was 10.6 ± 0.38.
In the case of “ATAATATAATATAAAACACACATATGTACCTTCTAA [CACACA_site2761]”, the “gcPBM binding intensity (ln)” value was determined as 7.77 ± 0.47.
“CAAGTTCAAAATACAAGGAAGAAACAAAACTTGGCG [GTGCAC_negctrl_site600]”: the “gcPBM binding intensity (ln)” value came to 7.88 ± 0.93.
In the case of “TAAAAATATCTGTATACACACATATATATATATATA [CACACA_site6042]” it was 9.44 ± 0.39; in that of “AAAAAAAAAAAAAAAAGTACAAATCTTTATTTATTA [XGTACX_site3305]”, 8.49 ± 0.67.
As to “AAAACAAATGCTTAAAGTACTTATTATTTTTCTTTT [XGTACX_site6324]”, the “gcPBM binding intensity (ln)” value amounted to 7.68 ± 0.83.
The value for “TTCCTACTATTCAAACGTACAAAATATTTAAATAAT [XGTACX_site700]” was 7.92 ± 0.41; that for “TATTATAAAACATTATGTACATATTCTGAAAAATAG [XGTACX_site6577]” was 7.68 ± 0.4; that for “TATTTCTTATTTATTTTTTAAGGAAATTAAAGATTT [CACACA_negctrl_site258]” was 7.31 ± 0.38.
In the case of “CAAAATAAAAAATTCACACACATATATATATATATA [CACACA_site2088]” it was 9.37 ± 0.27; in that of “TGGTGATCAAAATATACATGCATATGTTCTGTTATT [TGCATGCA_site614]”, 7.56 ± 0.71; in that of “TATATATTAGAAGATAGTACATATATATTTATTAAT [XGTACX_site1011]”, 7.74 ± 0.52.
In the case of “GCTCAATGTTTTACATGTACATATATATATATATAT [XGTACX_site8210]” it was 9.38 ± 0.42.

(Values after the supplement of paper PMC11417369.)
